Biological target: T1, human DKK1 (Homo sapiens, UniProt O94907)
T1 construct: purchased Sino Biological 10170-H08H
T1 sequence (O94907 32-266): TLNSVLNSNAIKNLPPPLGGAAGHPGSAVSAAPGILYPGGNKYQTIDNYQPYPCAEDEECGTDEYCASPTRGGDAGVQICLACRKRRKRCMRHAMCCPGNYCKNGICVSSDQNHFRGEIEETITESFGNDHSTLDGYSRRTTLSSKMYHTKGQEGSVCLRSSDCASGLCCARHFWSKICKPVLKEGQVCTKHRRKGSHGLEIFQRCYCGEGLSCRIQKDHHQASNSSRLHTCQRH
Experiment: Luciferase reporter gene assay in 293 TOP cells with Wnt3a and human DKK1 (recovery of Wnt signaling)
Format: cell-based
Conditions: humanized antibodies
Description: The cellular biological activity of the DKK1 antibodies was tested using target cells 293 TOP overexpressing LRP5/6 and comprising the luciferase reporter system and recombinant Wnt3a (R&D systems, cat #5036-WN), as well as human DKK1 (Sino Biological, cat #10170-H08H) protein. The target cells 293 TOP were placed into a 96-well flat-bottomed white plate (corning, cat #3917) at 50,000 cells per well for incubation overnight. The supernatant was then discarded, and the gradiently diluted antibodies to be tested were each added for pre-incubation at 37° C. for 0.5 h. After the pre-incubation was completed, the diluted Wnt3a (R&D systems, cat #5036-WN) and human DKK1 protein, at working concentrations of 0.05 μg/mL and 0.1 μg/mL, respectively, were added into the mixture containing the cells and antibody for co-incubation at 37° C. for 6-8 h. Finally, the luciferase substrate One-Lite (Vazyme, cat #DD1203-03-AB) was added and the chemiluminescence values of the hybridoma antibodies were measured. […]
The target cells 293 TOP were placed into a 96-well flat-bottomed white plate (corning, cat #3917) at 50,000 cells per well for incubation overnight. […] Finally, the luciferase substrate One-Lite (Vazyme, cat #DD1203-03-AB) was added and the chemiluminescence values of the chimeric antibodies were measured (FIGS. 5A-5C). […]

B1: hu2: humanized antibody, VH/VL SEQ ID NO: 49/55, HC/LC SEQ ID NO: 79/85 (antibody)
heavy: EVQLLQSAAEVKRPGESLRISCKTSGYTFTEYTMHWVRQMPGKELEWMGVIDPSNGDTSYNQKFKGHVTISADKSSSTAYLQWSSLKASDAAMYYCSSTTGPWFASWGQGTLVTVSSASTKGPSVFPLAPCSRSTSESTAALGCLVKDYFPEPVTVSWNSGALTSGVHTFPAVLQSSGLYSLSSVVTVPSSSLGTKTYTCNVDHKPSNTKVDKRV[letters of human IgG4 Fc with S228P (EU numbers) omitted]
light: DIQMTQSPSSLSASVGDRVTITCRASQDISNYLNWYQQKPGKAPKLLIYYKSRLHSGVPSRFSGSGSGTDFTLTISSLQPEDFATYYCQQVHTLPPTFGQGTKLEIKRTVAAPSVFIFPPSDEQLKSGTASVVCLLNNFYPREAKVQWKVDNALQSGNSQESVTEQDSKDSTYSLSSTLTLSKADYEKHKVYACEVTHQGLSSPVTKSFNRGEC
For B1, the “activity in the screening at cellular level” value was “superior activity”.

Source: patent US20250122271A1, “ANTI-DKK1 ANTIBODY, PHARMACEUTICAL COMPOSITION THEREOF, AND USE THEREOF” (SHANGHAI JUNSHI BIOSCIENCES CO., LTD., priority 2022, published 2025)
